According to the supplement of paper PMC11417369:
± gives the standard deviation of the averaged measurements. The list shows a part of the results.

What follows are sequences tested on PfAP2-I AP2 domain 3 (GST-tagged) (assay: gcPBM binding intensity (ln(normalized median fluorescence intensity)); higher = stronger DNA binding).
In short: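 The binding buffer was 1× PBS containing 1% milk, 0.2 mg/ml BSA, 0.5% salmon testes DNA and 0.03% Triton X-100. In it, GST-tagged P. falciparum DNA-binding domains expressed in E. coli were applied for 1 h to an Agilent 4 × 180k array of primer-extended double-stranded 36-bp intergenic genomic probes plus negative controls. Binding intensity, read with Alexa488 anti-GST antibody and a 488 nm scan, is the highest Masliner-normalised natural-log median intensity across replicate spots of either probe orientation.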

Sequence | gcPBM binding intensity (ln)
TTTTTTTTTTTTTTGGTGCACATAGAAATTCTAAAA [GTGCAC_site9809] | 10.9 ± 0.6
AAAAGAAAATAAGAAACACACAAAAATATATAAAAA [CACACA_site3697] | 7.65 ± 0.92
TTCTTTGCTTTTCAAACACACAAAAGTTATTATATT [CACACA_site521] | 7.95 ± 0.69
TTATAAATGTATTTATGTACATATAAATATATATAA [XGTACX_site2970] | 7.61 ± 0.18
TCATATTCCAAAAAAAAAAAAAAAAAAAAAAAAATA [CACACA_negctrl_site1293] | 7.53 ± 0.33
AATATATATATATTATGTACACATAGAAATATATTA [XGTACX_site3874] | 7.8 ± 0.27
AATTATATATAAAAAGTGCAAAACGATAATTCATCA | 9.795 ± 0.049
ATGTATTACTTAAATATATGAAACATATTACTTTTA [CACACA_negctrl_site496] | 7.24 ± 0.49
TTTTAGCTATTTTAATATAATGAAGCAAAAAATAAA [TGCATGCA_negctrl_site576] | 7.82 ± 0.085
ATAATAAATTCTACGCGTACAAAACCATGAACATTA [XGTACX_site7505] | 8.02 ± 0.38
CTTTCAAAATTATTTATAGTATCTCATATTTTAGTA [XGTACX_negctrl_site72] | 7.29 ± 0.6
ATCCTTTATAAATAAGTGCATATAAAAAATAATATT [GTGCAC_site9759] | 10.1 ± 0.3
ACACATATGTATATATGTACTTATATATATATATAT [XGTACX_site8632] | 9.2 ± 0.35
CACACGTAAAAGTATAATATAAAAAAGGTATACACT [CACACA_negctrl_site127] | 7.76 ± 0.73
TATTTAAAGATATATACACACATTTGATATTATTAT [CACACA_site6509] | 7.69 ± 0.42
ACCTACATACATATGTGTACTTATTTGTATTCACTG [XGTACX_site7124] | 8.13 ± 0.47
ATAATATATGAAAAAACGATTTTTTCATTTTAAATA [XGTACX_negctrl_site146] | 7.69 ± 0.52
TTTATAAACAAATGAACACACAAACATATTTATATA [CACACA_site7478] | 7.76 ± 0.2
AAAAAAAAAATTTTCGTGCACATAAGAAAATTTAAA [GTGCAC_site9788] | 10.3 ± 0.16
ATAGTATATCAAAATTTGTAAATCATTCTCAATAAA [CACACA_negctrl_site430] | 7.39 ± 0.47
CATACATACAAACACACACACATATAAATACATACA [CACACA_site4625] | 7.89 ± 0.3
AAAAAAAAAAAAAAAACACACATATCTGTATTTATA [CACACA_site5760] | 8.68 ± 0.47
ACATTGTTGGTGTTAGTGCATTGGTAAATATTATAT | 10.2 ± 0.11
TATAAAAAAATAATAAAATAATAAAATATATAAATA [TGCATGCA_negctrl_site394] | 7.37 ± 0.42
